# Assay results taken from the supplement of paper PMC4604168 (melanoma cell lines).
# This is one part of the list. Many values rest on one well or one pass, so single values are uncertain.
# System: LOXIMVI
# Assay: cell count relative to DMSO control; melanoma cells; higher = more viable cells
# Details: library dose: low library concentration; 72 h
# 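Note: cell number obtained by counting DAPI-stained nuclei in high-throughput microscope images with image analysis software, screen run in 1,536-well plates.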
row,Structure (SMILES),cell count [%]
1,"CC(=O)O[C@@]12CO[C@@H]1C[C@H](O)[C@@]1(C)C(=O)[C@H](O)C3=C(C)[C@@H](OC(=O)[C@H](O)[C@@H](NC(=O)OC(C)(C)C)c4ccccc4)C[C@@](O)([C@@H](OC(=O)c4ccccc4)[C@H]21)C3(C)C [Docetaxel] + O=S(=O)(c1ccccc1)N(CC(F)(F)F)c1ccc(C(O)(C(F)(F)F)C(F)(F)F)cc1 [T0901317] (first compound 0.0001 µM, partner dose 1.4 µM)",77.8
2,"Nc1nc(F)nc2c1ncn2[C@@H]1O[C@H](CO)[C@@H](O)[C@@H]1O [fludarabine] + CCN(CC)CCCCNc1ncc2cc(-c3cc(OC)cc(OC)c3)c(NC(=O)NC(C)(C)C)nc2n1 [PD173074] (first compound 0.2 µM, partner dose 0.1 µM)",79.9
3,"CC(=O)c1c(C)c2cnc(Nc3ccc(N4CCNCC4)cn3)nc2n(C2CCCC2)c1=O [palbociclib] + N#Cc1c(O)c2c(-c3ccc(-c4ccccc4O)cc3)csc2[nH]c1=O [A769662] (first compound 0.04 µM, partner dose 2 µM)",74.3
4,"CC(=O)O[C@@]12CO[C@@H]1C[C@H](O)[C@@]1(C)C(=O)[C@H](O)C3=C(C)[C@@H](OC(=O)[C@H](O)[C@@H](NC(=O)OC(C)(C)C)c4ccccc4)C[C@@](O)([C@@H](OC(=O)c4ccccc4)[C@H]21)C3(C)C [Docetaxel] + Oc1cc(-c2nc(-c3ccccc3)[nH]c2-c2ccncc2)ccc1Cl [L779450] (first compound 0.0001 µM, partner dose 0.2 µM)",51.7
5,"CC(=O)c1c(C)c2cnc(Nc3ccc(N4CCNCC4)cn3)nc2n(C2CCCC2)c1=O [palbociclib] + O=C(O)C(=O)Nc1sc2c(c1C(=O)O)CCNC2 [TCS401] (first compound 0.04 µM, partner dose 1.66667 µM)",75.4
6,"Nc1ncn([C@H]2C[C@H](O)[C@@H](CO)O2)c(=O)n1 [decitabine] + COc1cc(N2CCC(N3CCN(C)CC3)CC2)ccc1Nc1ncc(Cl)c(Nc2ccccc2S(=O)(=O)C(C)C)n1 [NVP-TAE684] (first compound 0.1 µM, partner dose 0.08 µM)",88
7,"CC(=O)c1c(C)c2cnc(Nc3ccc(N4CCNCC4)cn3)nc2n(C2CCCC2)c1=O [palbociclib] + CCCCCCCCCCCC1=C(O)C(=O)C=C(O)C1=O [Embelin] (first compound 0.04 µM, partner dose 1.2 µM)",106
8,"CC(=O)O[C@@]12CO[C@@H]1C[C@H](O)[C@@]1(C)C(=O)[C@H](O)C3=C(C)[C@@H](OC(=O)[C@H](O)[C@@H](NC(=O)OC(C)(C)C)c4ccccc4)C[C@@](O)([C@@H](OC(=O)c4ccccc4)[C@H]21)C3(C)C [Docetaxel] + O=C1NC(=O)/C(=C/c2ccc(-c3ccc(F)cc3O)o2)S1 [AS252424] (first compound 0.0001 µM, partner dose 1 µM)",80
9,"CC(=O)O[C@@]12CO[C@@H]1C[C@H](O)[C@@]1(C)C(=O)[C@H](O)C3=C(C)[C@@H](OC(=O)[C@H](O)[C@@H](NC(=O)OC(C)(C)C)c4ccccc4)C[C@@](O)([C@@H](OC(=O)c4ccccc4)[C@H]21)C3(C)C [Docetaxel] + O=c1cc(-c2cccc3c2Sc2ccccc2S3)oc(N2CCOCC2)c1 [KU55933] (first compound 0.0001 µM, partner dose 1 µM)",62.5
10,"Nc1nc(F)nc2c1ncn2[C@@H]1O[C@H](CO)[C@@H](O)[C@@H]1O [fludarabine] + O=C(Nc1ccccc1)c1cc([N+](=O)[O-])ccc1Cl [GW9662] (first compound 0.2 µM, partner dose 2 µM)",103
11,"Nc1ncn([C@H]2C[C@H](O)[C@@H](CO)O2)c(=O)n1 [decitabine] + COc1ccc2c(c1)CCC1C2CCC2(C)C(NCCCCCCN3C(=O)C=CC3=O)CCC12 [U73122] (first compound 0.1 µM, partner dose 0.4 µM)",82.2
12,"Nc1ccn([C@@H]2O[C@H](CO)[C@@H](O)C2(F)F)c(=O)n1 [gemcitabine] + CCCCCCCCCCCC1=C(O)C(=O)C=C(O)C1=O [Embelin] (first compound 0.0004 µM, partner dose 1.2 µM)",128
13,"Nc1ccn([C@@H]2O[C@H](CO)[C@@H](O)C2(F)F)c(=O)n1 [gemcitabine] + COC(=O)c1sccc1S(=O)(=O)Nc1ccc(Nc2ccccc2)cc1OC [GSK0660] (first compound 0.0004 µM, partner dose 1 µM)",122

# System: MEL-HO
# Assay: as above
# Details: library dose: low library concentration; 72 h
row,Structure (SMILES),cell count [%]
1,"Nc1ccn([C@@H]2O[C@H](CO)[C@@H](O)C2(F)F)c(=O)n1 [gemcitabine] + O=c1cc(-c2cccc3c2Sc2ccccc2S3)oc(N2CCOCC2)c1 [KU55933] (first compound 0.0004 µM, partner dose 1 µM)",88.4
2,"Nc1nc(F)nc2c1ncn2[C@@H]1O[C@H](CO)[C@@H](O)[C@@H]1O [fludarabine] + Oc1cc(-c2nc(-c3ccccc3)[nH]c2-c2ccncc2)ccc1Cl [L779450] (first compound 0.2 µM, partner dose 0.2 µM)",64.6
3,"Nc1ccn([C@@H]2O[C@H](CO)[C@@H](O)C2(F)F)c(=O)n1 [gemcitabine] + CCN(CC)CCCCNc1ncc2cc(-c3cc(OC)cc(OC)c3)c(NC(=O)NC(C)(C)C)nc2n1 [PD173074] (first compound 0.0004 µM, partner dose 0.1 µM)",79.1
4,"CC(=O)O[C@@]12CO[C@@H]1C[C@H](O)[C@@]1(C)C(=O)[C@H](O)C3=C(C)[C@@H](OC(=O)[C@H](O)[C@@H](NC(=O)OC(C)(C)C)c4ccccc4)C[C@@](O)([C@@H](OC(=O)c4ccccc4)[C@H]21)C3(C)C [Docetaxel] + CCCCCCCCCCCC1=C(O)C(=O)C=C(O)C1=O [Embelin] (first compound 0.0001 µM, partner dose 1.2 µM)",50.6
5,"Nc1nc(F)nc2c1ncn2[C@@H]1O[C@H](CO)[C@@H](O)[C@@H]1O [fludarabine] + O=c1cc(-c2cccc3c2Sc2ccccc2S3)oc(N2CCOCC2)c1 [KU55933] (first compound 0.2 µM, partner dose 1 µM)",102
6,"CO[C@H]1C[C@@H]2CC[C@@H](C)[C@@](O)(O2)C(=O)C(=O)N2CCCC[C@H]2C(=O)O[C@H]([C@H](C)C[C@@H]2CC[C@@H](OCCO)[C@H](OC)C2)CC(=O)[C@H](C)/C=C(\C)[C@@H](O)[C@@H](OC)C(=O)[C@H](C)C[C@H](C)/C=C/C=C/C=C/1C [everolimus] + O=c1cc(-c2cccc3c2Sc2ccccc2S3)oc(N2CCOCC2)c1 [KU55933] (first compound 0.02 µM, partner dose 1 µM)",73.5
7,"CC(=O)O[C@@]12CO[C@@H]1C[C@H](O)[C@@]1(C)C(=O)[C@H](O)C3=C(C)[C@@H](OC(=O)[C@H](O)[C@@H](NC(=O)OC(C)(C)C)c4ccccc4)C[C@@](O)([C@@H](OC(=O)c4ccccc4)[C@H]21)C3(C)C [Docetaxel] + COc1ccc2c(c1)CCC1C2CCC2(C)C(NCCCCCCN3C(=O)C=CC3=O)CCC12 [U73122] (first compound 0.0001 µM, partner dose 0.4 µM)",50
8,"CC(=O)O[C@@]12CO[C@@H]1C[C@H](O)[C@@]1(C)C(=O)[C@H](O)C3=C(C)[C@@H](OC(=O)[C@H](O)[C@@H](NC(=O)OC(C)(C)C)c4ccccc4)C[C@@](O)([C@@H](OC(=O)c4ccccc4)[C@H]21)C3(C)C [Docetaxel] + O=C(O)C(=O)Nc1sc2c(c1C(=O)O)CCNC2 [TCS401] (first compound 0.0001 µM, partner dose 1.66667 µM)",55.2
9,"CO[C@H]1C[C@@H]2CC[C@@H](C)[C@@](O)(O2)C(=O)C(=O)N2CCCC[C@H]2C(=O)O[C@H]([C@H](C)C[C@@H]2CC[C@@H](OCCO)[C@H](OC)C2)CC(=O)[C@H](C)/C=C(\C)[C@@H](O)[C@@H](OC)C(=O)[C@H](C)C[C@H](C)/C=C/C=C/C=C/1C [everolimus] + c1cc(-c2cnn3cc(-c4ccc(OCCN5CCCCC5)cc4)cnc23)ccn1 [Dorsomorphin] (first compound 0.02 µM, partner dose 0.4 µM)",80.3
10,"CC(=O)c1c(C)c2cnc(Nc3ccc(N4CCNCC4)cn3)nc2n(C2CCCC2)c1=O [palbociclib] + Oc1cc(-c2nc(-c3ccccc3)[nH]c2-c2ccncc2)ccc1Cl [L779450] (first compound 0.04 µM, partner dose 0.2 µM)",84.1
11,"Nc1ncn([C@H]2C[C@H](O)[C@@H](CO)O2)c(=O)n1 [decitabine] + O=C(Nc1ccccc1)c1cc([N+](=O)[O-])ccc1Cl [GW9662] (first compound 0.1 µM, partner dose 2 µM)",106
12,"Nc1nc(F)nc2c1ncn2[C@@H]1O[C@H](CO)[C@@H](O)[C@@H]1O [fludarabine] + c1cc(-c2cnn3cc(-c4ccc(OCCN5CCCCC5)cc4)cnc23)ccn1 [Dorsomorphin] (first compound 0.2 µM, partner dose 0.4 µM)",104
13,"CO[C@H]1C[C@@H]2CC[C@@H](C)[C@@](O)(O2)C(=O)C(=O)N2CCCC[C@H]2C(=O)O[C@H]([C@H](C)C[C@@H]2CC[C@@H](OCCO)[C@H](OC)C2)CC(=O)[C@H](C)/C=C(\C)[C@@H](O)[C@@H](OC)C(=O)[C@H](C)C[C@H](C)/C=C/C=C/C=C/1C [everolimus] + O=C(Nc1ccccc1)c1cc([N+](=O)[O-])ccc1Cl [GW9662] (first compound 0.02 µM, partner dose 2 µM)",64.4
